Experimental findings from publication PMC4336329 (PLoS ONE, 2015) are described below.

Each structure is given as a SMILES string. Among all 310,000 compounds or so, about 2,200 (0.71%) showed an effect of 50% or more. Effects have a minus sign here. The list shows a part of the results.

The target of the assay is human ether-à-go-go-related gene (hERG) potassium channel (human, UniProt Q12809). Kind of assay: primary screen, population patch clamp on CHO cells stably expressing hERG.
Sequence of human ether-à-go-go-related gene (hERG) potassium channel (Q12809 whole entry, looked up): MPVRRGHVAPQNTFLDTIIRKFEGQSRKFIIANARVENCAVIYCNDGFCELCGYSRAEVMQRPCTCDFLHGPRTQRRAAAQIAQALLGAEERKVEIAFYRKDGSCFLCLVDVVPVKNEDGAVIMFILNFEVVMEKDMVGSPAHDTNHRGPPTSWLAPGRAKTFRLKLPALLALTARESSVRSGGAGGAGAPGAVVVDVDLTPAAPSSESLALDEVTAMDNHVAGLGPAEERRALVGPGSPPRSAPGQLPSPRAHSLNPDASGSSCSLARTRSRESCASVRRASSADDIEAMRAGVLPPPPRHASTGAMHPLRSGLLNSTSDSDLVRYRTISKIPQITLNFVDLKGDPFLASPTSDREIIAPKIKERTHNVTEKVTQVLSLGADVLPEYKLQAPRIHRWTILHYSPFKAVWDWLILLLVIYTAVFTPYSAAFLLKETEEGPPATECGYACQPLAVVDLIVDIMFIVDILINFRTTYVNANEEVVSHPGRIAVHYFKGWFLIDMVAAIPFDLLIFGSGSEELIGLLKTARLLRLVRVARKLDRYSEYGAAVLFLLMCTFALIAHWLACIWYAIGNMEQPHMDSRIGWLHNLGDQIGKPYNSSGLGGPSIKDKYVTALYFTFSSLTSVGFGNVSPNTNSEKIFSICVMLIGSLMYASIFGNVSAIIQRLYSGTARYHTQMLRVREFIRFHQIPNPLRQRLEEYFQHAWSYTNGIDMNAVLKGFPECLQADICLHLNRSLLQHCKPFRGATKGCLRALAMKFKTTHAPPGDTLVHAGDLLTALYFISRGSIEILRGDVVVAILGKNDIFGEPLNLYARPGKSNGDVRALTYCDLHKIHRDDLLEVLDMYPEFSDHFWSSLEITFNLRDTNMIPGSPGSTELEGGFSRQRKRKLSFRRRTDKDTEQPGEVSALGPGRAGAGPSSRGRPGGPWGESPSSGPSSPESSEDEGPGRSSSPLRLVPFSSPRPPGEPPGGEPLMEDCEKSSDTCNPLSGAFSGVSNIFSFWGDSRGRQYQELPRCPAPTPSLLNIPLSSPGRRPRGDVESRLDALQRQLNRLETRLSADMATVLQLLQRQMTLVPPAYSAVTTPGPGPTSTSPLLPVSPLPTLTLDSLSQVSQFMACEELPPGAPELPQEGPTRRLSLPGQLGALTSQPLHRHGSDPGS
For `CC(C)(C)c1ccc(C(=O)NCC(=O)N/N=C/c2cccnc2)cc1`, the “hERG current change (%, negative = inhibition) at 1uM” value is listed as 7.87%.
On to `COCCNc1nc(C)cc(-c2cc(-c3ccc(Cl)cc3)on2)n1`, for which the “hERG current change (%, negative = inhibition) at 1uM” value is given as 3.1%.
On to `Cc1ccc(NC(=O)CN(C)CC(=O)NC2CCCc3ccccc32)cc1` (stereo not shown), for which the “hERG current change (%, negative = inhibition) at 1uM” value was -5.94%.
In the case of `CCOC(=O)C1(Cc2cccc(OC)c2)CCN(Cc2ccc3c(c2)OCCO3)CC1` it was -4.27%; in that of `CC1(C)Cc2c(cnn2-c2ccccc2)C(NC(=O)CCc2ccncc2)C1` (stereo not shown), -35.9%.
In the case of `CCN(Cc1ccncc1)Cc1cn(C)nc1-c1ccc(Oc2ccccc2)cc1` it was -1.75%.
In the case of `O=C(NC1CCN(Cc2ccccc2)CC1)c1ccc(CS(=O)c2ccc(F)cc2)o1` (stereo not shown) it was 0.977%; in that of `Nc1ccccc1SC1CC(=O)N(c2ccc3c(c2)OCO3)C1=O` (stereo not shown), 14.3%.
As to `O=C(NCCc1ccccc1)c1c(O)c2ccccc2[nH]c1=O`, the “hERG current change (%, negative = inhibition) at 1uM” value amounted to 19.4%.
Consider `COCCN1C(=O)N[C@@H](c2cccc(F)c2)C(C(C)=O)=C1C`, for which the “hERG current change (%, negative = inhibition) at 1uM” value was determined as 14.1%.
In the case of `CCCCN(C(=O)c1ccccc1F)c1c(N)n(CCC)c(=O)[nH]c1=O` it was 17.1%.
In the case of `O=C(NC(=S)Nc1ccccc1)c1csnn1` it was 14.3%; in that of `CN(C)CCNC(=O)NC1CCCCC1`, 8.59%; in that of `CCCCc1nc(NCc2ccccc2)c(C#N)c2c1CCCC2`, 2.62%.
Consider `Cl.c1ccc(CN2CCN(C3CCCSc4ccccc43)CC2)cc1` (stereo not shown), for which the “hERG current change (%, negative = inhibition) at 1uM” value is on record as 15.8%.
In the case of `CCC(C)[C@H](Nc1nc(-c2ccccc2)nc2c1oc1ccccc12)C(=O)O.Cl` (stereo partly shown) it was 10.9%; in that of `O=C(NCc1ccccn1)c1c(O)c2cccc3c2n(c1=O)CC3`, 0.466%; in that of `Fc1ccccc1CSc1nnc(-c2cnccn2)n1Cc1ccco1`, 3.71%.
In the case of `Cc1cc(N(CN2CCCC2=O)C(=O)c2ccc(F)cc2)no1` it was -10.2%; in that of `CCC(Cc1ccccc1)NC(=O)/C=C/c1ccco1` (stereo not shown), 12.7%; in that of `CC1=NN(C(=O)c2ccc(Cn3nc(C)c([N+](=O)[O-])c3C)cc2)C(O)(C(F)(F)F)C1` (stereo not shown), -8.46%.
In the case of `O=S(=O)(NCCc1ccccc1)c1cccc2nsnc12` it was 1.55%.
Consider `O=C(NCCCCCNC(=O)c1ccccn1)c1ccccn1`, for which the “hERG current change (%, negative = inhibition) at 1uM” value is 10.2%.
On to `C=CCN1c2ccccc2[C@]23C[C@@H](C(=O)OC)N(C(=O)C4CCC4)C2=NC(C(=O)OC)=C(C(=O)OC)[C@H]13`, for which the “hERG current change (%, negative = inhibition) at 1uM” value is 3.06%.
In the case of `Cc1cc(NC(=O)CSc2nc(-c3cccs3)cc(C(F)(F)F)n2)no1` it was 12.2%.
Regarding `CC(C)COP(=O)(c1ccc(N(C)C)cc1)C(Nc1ccccc1)c1ccccc1` (stereo not shown), the “hERG current change (%, negative = inhibition) at 1uM” value was determined as 12.3%.
In the case of `O=C(CCSCCC(=O)Nc1ccccc1F)Nc1ccccc1F` it was 9.32%.
In the case of `C=CCn1c(SCC(=O)N(CC)CC)nc(O)cc1=O` it was 11.8%.
Take `CCOn1c(=O)c(-c2ccc(C)cc2)[n+]([O-])c2ccccc21`: the “hERG current change (%, negative = inhibition) at 1uM” value is on record as 13.7%.
For `CC(=O)Nc1ccc(NC(=O)c2c(C)nn(Cc3ccccc3)c2Cl)cc1`, the “hERG current change (%, negative = inhibition) at 1uM” value was found to be 9.13%.
With `CC(C)(C)c1ccc(-c2csc(NC(=O)CN3C(=O)NC4(CCCCC4)C3=O)n2)cc1`, the “hERG current change (%, negative = inhibition) at 1uM” value was 18.2%.
In the case of `CCOC(=O)N1CCC(c2cc(=O)n3[nH]ccc3n2)CC1`, the “hERG current change (%, negative = inhibition) at 1uM” value was determined as 16.5%.
As for `CN(C)c1nc(NCc2ccccc2)nc(N/N=C/c2ccc(Br)cc2)n1`, the “hERG current change (%, negative = inhibition) at 1uM” value is reported as 7.76%.
In the case of `CC(C)C[C@H]1C(=O)N2CCC[C@H]2[C@]2(O)O[C@](NC(=O)[C@@H]3C=C4c5cccc6[nH]c(Br)c(c56)CC4N(C)C3)(C(C)C)C(=O)N12.CS(=O)(=O)O` (stereo partly shown) it was 16.5%.
For `CCOC(=O)c1c(-c2ccc(C)cc2)csc1NC(=O)CCSc1nnc2ccccn12`, the “hERG current change (%, negative = inhibition) at 1uM” value is on record as 7.31%.
Turning to `O=c1[nH]cnc2nc(-c3ccccc3)c(-c3ccccc3)nc12`, the “hERG current change (%, negative = inhibition) at 1uM” value is reported as -9.89%.
On to `Cc1nc2sc3c(c2c(=O)o1)CCC3`, for which the “hERG current change (%, negative = inhibition) at 1uM” value is recorded as 5.89%.
Regarding `CCn1nc(C(C)C)cc1C(=O)N1CCCC(CO)(Cc2ccc(F)cc2F)C1` (stereo not shown), the “hERG current change (%, negative = inhibition) at 1uM” value is on record as 5.81%.
In the case of `O=C(Nc1sc2c(c1C(=O)O)CCC2)c1cccs1` it was 17.6%; in that of `O=C(NC1CCCCC1)c1cc(S(=O)(=O)N2CCCC2)ccc1Cl`, 10.8%; in that of `COc1ccc(/C(C)=N/Nc2ncc(Cl)cc2Cl)c(O)c1`, 2.52%.
As for `Cc1nc2c(c(=O)c3ccccc3n2C)c(=O)n1-c1ccccc1`, the “hERG current change (%, negative = inhibition) at 1uM” value amounted to 9.45%.
In the case of `Cc1nc(SCc2ccccc2F)c2cnn(-c3ccccc3)c2n1` it was 7.34%; in that of `CC(C)COc1ccc(CSCCNC(=S)Nc2ccccc2)cc1`, 9.95%; in that of `CCCCNC(=O)N1CCN(c2ccccc2OC)CC1`, 5.81%.
In the case of `CSc1nc(SCC(=O)NCc2ccco2)c2c3c(sc2n1)COC(C)(C)C3` it was -2.39%; in that of `c1ccc(C2=Nn3c(nnc3-c3cccnc3)SC2)cc1`, -4.73%; in that of `CCc1ccc(C2N3CC4([N+](=O)[O-])CN2CC([N+](=O)[O-])(C3)C4(C)C)cc1` (stereo not shown), 9.86%.
For `O=C(c1ccc(Cn2cc(Br)cn2)o1)n1cccn1`, the “hERG current change (%, negative = inhibition) at 1uM” value came to 10.5%.
In the case of `CSCCC(NC(=O)C1CCC(C)CC1)C(=O)OCC(=O)c1ccc(Cl)cc1` (stereo not shown) it was 11.7%; in that of `CN(Cc1cc(=O)[nH]c2ccccc12)C(=O)c1ccccc1`, 10.4%.
With `CN(C(=O)CSc1nc(O)cc(=O)n1C1CCCC1)c1ccccc1`, the “hERG current change (%, negative = inhibition) at 1uM” value amounted to 4.58%.
In the case of `COc1ccc(C(=O)NCC(=O)OCC(=O)c2ccc(Cl)cc2)cc1OC` it was -31.1%.
In the case of `CCC(=O)c1cc(F)c(N2CCN(C(=O)Cc3ccccc3)CC2)cc1C` it was -4.24%.
In the case of `O=C(COC(=O)c1cccc(F)c1)Nc1ccc2c(c1)OCCO2` it was 10.3%.
`Cc1cc(C)c(C)c(S(=O)(=O)NCC(=O)O)c1C`: the “hERG current change (%, negative = inhibition) at 1uM” value came out at 10.6%.
As for `O=C(Cn1nc(C(=O)O)c2ccccc2c1=O)NCc1ccco1`, the “hERG current change (%, negative = inhibition) at 1uM” value worked out at 11%.
For `CC1=Nc2cc(C(=O)N3CCCC3)ccc2Sc2c(C)ccc(C)c21`, the “hERG current change (%, negative = inhibition) at 1uM” value turned out to be 22%.
In the case of `CCSc1ccccc1C(=O)NCc1ccco1` it was 9.88%; in that of `Cn1c(SCC(=O)n2c3c(c4ccccc42)CCCC3)nnc1-c1ccccc1`, -4.41%; in that of `O=C(NN=C1CCCCC1)NC1CCCCC1`, 10.1%.
On to `CC(=O)c1cccc(CN2CCc3ccc(NC(=O)C4CCCO4)cc3C2)c1` (stereo not shown), for which the “hERG current change (%, negative = inhibition) at 1uM” value was found to be 17.5%.
In the case of `COC(=O)c1c(C)nn(-c2ccc(OC(F)(F)F)cc2)c1-c1snnc1C`, the “hERG current change (%, negative = inhibition) at 1uM” value came to 3.65%.
On to `COc1cc(C(C(=O)NC2CCCCC2)N(C(=O)Cc2c[nH]c3ccccc23)c2ccccc2C)cc(OC)c1OC` (stereo not shown), for which the “hERG current change (%, negative = inhibition) at 1uM” value is recorded as 4.08%.
Regarding `CN(Cc1cnccn1)C(=O)CC1C(=O)NCCN1Cc1c(F)cccc1Cl` (stereo not shown), the “hERG current change (%, negative = inhibition) at 1uM” value came to 19.6%.
On to `Cc1ccc(S(=O)(=O)N2CCCOC2CNC(=O)C(=O)NC2CCCC2)cc1` (stereo not shown), for which the “hERG current change (%, negative = inhibition) at 1uM” value is 5.9%.
As for `CCOC(=O)c1c(C)[nH]c(C(=O)/C(C#N)=C/c2ccc(OCC)cc2)c1C`, the “hERG current change (%, negative = inhibition) at 1uM” value was determined as 14.3%.
As for `CCN(CC)S(=O)(=O)c1cccc(NC(=O)COC(=O)c2cccs2)c1`, the “hERG current change (%, negative = inhibition) at 1uM” value was found to be 9.82%.
Take `CCCCCN(C(=O)CCC(=O)OCC(=O)c1ccc(C(C)CC)cc1)c1c(N)n(CCCC)c(=O)[nH]c1=O` (stereo not shown): the “hERG current change (%, negative = inhibition) at 1uM” value was 5.92%.
In the case of `N#Cc1ccccc1NC(=O)CSc1cn[nH]n1` it was 5.64%.
For `Cc1nc2ccccc2nc1Nc1cccc(Cl)c1`, the “hERG current change (%, negative = inhibition) at 1uM” value turned out to be 15.5%.
On to `C/C(=N/NS(=O)(=O)c1ccc(C(C)C)cc1)c1ccncc1`, for which the “hERG current change (%, negative = inhibition) at 1uM” value is listed as 10.3%.
Turning to `CN(CCCNC(=O)C1CCN(S(=O)(=O)c2cccc3nsnc23)CC1)Cc1ccccc1`, the “hERG current change (%, negative = inhibition) at 1uM” value is on record as -0.292%.
In the case of `COCCNc1nc2nonc2nc1N1CCCC1c1nccs1` (stereo not shown) it was 19.5%; in that of `O=C(C1=C[C@H](C2CC2)C[C@H](OCCCCO)O1)N1CCN(Cc2ccccc2)CC1`, -1.32%.
In the case of `CCCCSCc1ccc(C(=O)O)o1` it was -9.6%; in that of `COC(c1ccccc1)c1nnc(CCC(=O)NC2C3CC4CC(C3)CC2C4)o1` (stereo not shown), 6.83%; in that of `Cc1ccccc1-c1cc(=O)c2c(O)cccc2o1`, 4.06%.
In the case of `Cn1c(=NC(=O)c2ccccc2[N+](=O)[O-])sc2cc(S(C)(=O)=O)ccc21` it was 3.19%; in that of `COCc1ccc(C(=O)NCC2(N3CCCCC3)CCCCC2)cc1.O=C(O)C(=O)O`, 1.67%.
Turning to `CCCn1nc2cc(C(=O)NCc3ccc(OC)cc3)ccc2c1OCC`, the “hERG current change (%, negative = inhibition) at 1uM” value was 15.9%.
Turning to `CCC(C)(C)C(=O)Nc1ncc(S(=O)(=O)c2ccc([N+](=O)[O-])cc2)s1`, the “hERG current change (%, negative = inhibition) at 1uM” value was 7.24%.
Take `Cc1cccc(OCc2nnc(SC(C)C(=O)O)n2-c2ccccc2)c1` (stereo not shown): the “hERG current change (%, negative = inhibition) at 1uM” value is on record as 9%.
For the molecule `O=C(/C=C/c1ccccc1)NC(NC(=S)Nc1cccc(O)c1)C(Cl)(Cl)Cl` (stereo not shown), the “hERG current change (%, negative = inhibition) at 1uM” value is listed as 6.18%.
For `Cn1c(=O)n(C)c2cc(NC(=O)COc3ccc(F)cc3)ccc21`, the “hERG current change (%, negative = inhibition) at 1uM” value is given as -3.2%.
Take `O=C(/C=C/c1ccc(Br)o1)OCc1ccccc1`: the “hERG current change (%, negative = inhibition) at 1uM” value is recorded as 7.92%.
In the case of `CCOC(=O)C(CC)n1cnc2c(oc3ccccc32)c1=O` (stereo not shown) it was 8.78%.
Regarding `CCOC(=O)[C@@H]1[C@H]2COc3ccccc3[C@H]2N2C(=O)N(c3ccc(C)cc3)C(=O)[C@]12C`, the “hERG current change (%, negative = inhibition) at 1uM” value worked out at 6.82%.
